Drawing on PubChem BioAssay (NCI), this text covers GI50 and TGI for four compounds.

Each structure is given as a SMILES string.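 A five-concentration, 48-hour dose response in 96-well plates underlies each endpoint, interpolated linearly between surrounding concentrations. Here, GI50 denotes the concentration required for 50% inhibition of growth. TGI is the concentration that stops growth completely.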

This test has as its system NCI-H322M lung. Nature of the test: NCI anticancer screen, dose series, 48 h.
As for `C#C[C@]1(O)CC[C@H]2[C@@H]3CC=C4c5sc(Nc6cc(OC)ccc6OC)nc5CC[C@]4(C)[C@H]3CC[C@@]21C`, the GI50 was 3.84 µM and the TGI was above 100 µM.
The like results for `COc1ccc(Cn2cc3c(c2-c2cc(OC)c(OC)c(OC)c2)CCc2c(CN4CCOCC4)noc2-3)cc1` were, in that order, above 100 µM and above 100 µM.
As for `CN(c1ccc(Br)cc1)S(=O)(=O)c1ccc(-c2cnc(C3CC3)o2)cc1`, the GI50 is 3.63 µM and the TGI is above 100 µM.
As for `Cc1nc(N)sc1-c1csc(Nc2ccc(C(F)(F)F)cc2)n1`, the GI50 was 11.1 µM and the TGI was found to be 23.1 µM.
